Experimental data: publication PMC9584953, “Promiscuity of response regulators for thioredoxin steers bacterial virulence” (Nature Communications, 2022)

Columns and labels:
GST-OmpR = target: T1, GST-OmpR (Salmonella enterica serovar Typhimurium, UniProt P0AA19 1-239); assay: MST; NT647 (RED-Tris-NTA)-labelled TrxA-6His variants, GST-OmpR diluted in series, 50 mM Tris HCl pH 7.5, 75 mM NaCl, Monolith NT.115, 40% MST power; details: both partners purified
T1 construct: response regulator OmpR of Salmonella; pGEX-6p-1; also called recombinant OmpR protein; source: E. coli BL21 (DE3) or Origami B (DE3) pLysS, purified (Glutathione-Sepharose 4B, Superdex 75)
T1 sequence: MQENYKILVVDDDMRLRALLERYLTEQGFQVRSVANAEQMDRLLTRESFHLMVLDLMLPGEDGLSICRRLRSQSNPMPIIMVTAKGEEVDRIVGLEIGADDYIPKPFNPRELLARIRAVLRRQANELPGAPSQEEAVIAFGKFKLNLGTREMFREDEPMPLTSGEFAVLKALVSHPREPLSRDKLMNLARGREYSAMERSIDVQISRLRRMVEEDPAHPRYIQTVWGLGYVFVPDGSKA

[1] = target: T2, OmpR-6His (recombinant, wild type) (Salmonella enterica serovar Typhimurium, UniProt P0AA19 1-239); assay: NMR titration; 15N-HSQC, 300 μM 15N-TrxA with 0-600 μM unlabeled OmpR, 298 K, 20 mM KPO4, 50 mM NaCl, pH 6.5; details: both partners purified
T2 construct: response regulator OmpR of Salmonella; pET22b::OmpR; isotope-labelled for NMR; also called unlabeled OmpR; 15N-labeled OmpR; source: E. coli Origami B (DE3), purified (TALON)
T2 sequence: T1 sequence

B1: TrxA-6His (recombinant thioredoxin, wild type) (natural protein)
chain: not shown
notes: thioredoxin TrxA of Salmonella, encoded by trxA; pET-22b(+) NdeI/XhoI; isotope-labelled (15N, 13C) for NMR; labelled with NT647 RED-Tris-NTA on the His tag for MST; also called 15N-labeled TrxA; wildtype TrxA; source: E. coli BL21 (DE3), purified (TALON, Superdex 75); not shown: His6, C-terminal, kept
- Kd (GST-OmpR): 6 µM
- Kd [1]: < 10 µM
